# Measured values taken from the supplement of paper PMC7125110.
# ± gives the standard error. This sample is rich in variants without activity.
# B1: glmS ribozyme (parent)
# chain: AUAAAAGCGCCAGAACUACAGAAAUGUAGUUGACGAGGAGGAGGUUUAUCGAAUUUUCGGCGGAUGCCUCCAAA
# Key:
# Conditions in all cases: with glucosamine-6-phosphate
# glucosamine-6-phosphate [1] = variants of: B1; assay: self-cleavage kobs at 40 uM GlcN6P; higher = faster cleavage; RNA array
# Method in brief: (§1)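 Glucosamine-6-phosphate in HEPES/KCl/Mg(OAc)2 buffer, at 40 μM to 10 mM, was flowed over barcoded ribozyme variants transcribed in situ by E. coli RNA polymerase on sequenced MiSeq chips. Tracking was through a hybridised Cy3 probe at 37 °C. kobs, kcat and KM came from exponential decay fits and weighted Michaelis–Menten fits of normalised per-tile medians.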
# glucosamine-6-phosphate [2] = variants of: B1; assay: self-cleavage kobs at 640 uM GlcN6P; higher = faster cleavage; RNA array
# Method in brief: as §1
# glucosamine-6-phosphate [3] = variants of: B1; assay: self-cleavage kobs at 2500 uM GlcN6P; higher = faster cleavage; RNA array
# Method in brief: as §1
# glucosamine-6-phosphate [4] = variants of: B1; assay: self-cleavage kobs at 160 uM GlcN6P; higher = faster cleavage; RNA array
# Method in brief: as §1
# glucosamine-6-phosphate [5] = variants of: B1; assay: self-cleavage kobs at 10000 uM GlcN6P; higher = faster cleavage; RNA array
# Method in brief: as §1
Variant,self-cleavage kobs at 40 uM GlcN6P (glucosamine-6-phosphate [1]),self-cleavage kobs at 640 uM GlcN6P (glucosamine-6-phosphate [2]),self-cleavage kobs at 2500 uM GlcN6P (glucosamine-6-phosphate [3]),self-cleavage kobs at 160 uM GlcN6P (glucosamine-6-phosphate [4]),self-cleavage kobs at 10000 uM GlcN6P (glucosamine-6-phosphate [5])
U57A C71U,< 1e-05 s⁻¹,–,–,–,–
G9U U30C A33U,–,< 1e-05 s⁻¹,–,–,–
G9A G44U A52G U65G,–,< 1e-05 s⁻¹,< 1e-05 s⁻¹,–,–
A6U A33G U46A,–,< 1e-05 s⁻¹,–,–,–
U45G A48G C71U,< 1e-05 s⁻¹,–,–,< 1e-05 s⁻¹,–
C10U G13U A48U,–,< 1e-05 s⁻¹,< 1e-05 s⁻¹,–,–
U45G C70U,0.000542 ± 5.6e-05 s⁻¹,0.00288 ± 0.0004 s⁻¹,0.00473 ± 0.00096 s⁻¹,0.00139 ± 0.00018 s⁻¹,0.0102 ± 0.0013 s⁻¹
C10U A33C U46C,–,< 1e-05 s⁻¹,< 1e-05 s⁻¹,< 1e-05 s⁻¹,–
G7U U57G,–,< 1e-05 s⁻¹,< 1e-05 s⁻¹,< 1e-05 s⁻¹,–
C61G C70U C71U,< 1e-05 s⁻¹,–,–,–,< 1e-05 s⁻¹
U55A G62C,< 1e-05 s⁻¹,< 1e-05 s⁻¹,–,–,< 1e-05 s⁻¹
C10G G44A C50U U54C G62A,–,< 1e-05 s⁻¹,–,< 1e-05 s⁻¹,–
G7U A39C U57G G63C C68U,–,< 1e-05 s⁻¹,< 1e-05 s⁻¹,–,–
G7U C11A G43A,–,< 1e-05 s⁻¹,–,< 1e-05 s⁻¹,–
G9A C50A G60U C67G,–,< 1e-05 s⁻¹,–,–,–
A48G G59C,< 1e-05 s⁻¹,–,< 1e-05 s⁻¹,< 1e-05 s⁻¹,< 1e-05 s⁻¹
U46A U69C,9.53e-05 ± 1.9e-05 s⁻¹,0.00073 ± 0.00012 s⁻¹,–,0.000133 ± 2.7e-05 s⁻¹,–
C10A A12G A33U,–,< 1e-05 s⁻¹,< 1e-05 s⁻¹,< 1e-05 s⁻¹,–
G9A A14C G63A,–,< 1e-05 s⁻¹,–,–,–
U57G G62A,< 1e-05 s⁻¹,–,–,–,–
G9A A48U C50A,–,< 1e-05 s⁻¹,–,–,–
U54C U69A,3.96e-05 ± 1.5e-05 s⁻¹,0.000111 ± 3.8e-05 s⁻¹,0.000123 ± 3.1e-05 s⁻¹,6.58e-05 ± 2.2e-05 s⁻¹,0.000105 ± 2e-05 s⁻¹
A48C U69G,< 1e-05 s⁻¹,–,–,< 1e-05 s⁻¹,< 1e-05 s⁻¹
C8G C11G G43A,–,< 1e-05 s⁻¹,< 1e-05 s⁻¹,< 1e-05 s⁻¹,–
C10G A15G U55G,–,< 1e-05 s⁻¹,–,–,–
A48U U54C C70A,< 1e-05 s⁻¹,–,–,–,–
G7C G9U A36U,–,< 1e-05 s⁻¹,< 1e-05 s⁻¹,< 1e-05 s⁻¹,–
G9A C10A G13C G29C,–,< 1e-05 s⁻¹,< 1e-05 s⁻¹,–,–

Variant,self-cleavage kobs at 40 uM GlcN6P (glucosamine-6-phosphate [1]),self-cleavage kobs at 640 uM GlcN6P (glucosamine-6-phosphate [2]),self-cleavage kobs at 2500 uM GlcN6P (glucosamine-6-phosphate [3]),self-cleavage kobs at 160 uM GlcN6P (glucosamine-6-phosphate [4]),self-cleavage kobs at 10000 uM GlcN6P (glucosamine-6-phosphate [5])
C10A G40A G60A U65C,–,< 1e-05 s⁻¹,< 1e-05 s⁻¹,< 1e-05 s⁻¹,–
C10G C16U A33U,–,< 1e-05 s⁻¹,–,–,–
G7A G66A,–,< 1e-05 s⁻¹,–,< 1e-05 s⁻¹,–
G51U G66U,< 1e-05 s⁻¹,< 1e-05 s⁻¹,–,–,–
U49A G59U G60U,< 1e-05 s⁻¹,–,–,–,< 1e-05 s⁻¹
C8U A14C A15C,–,< 1e-05 s⁻¹,–,–,–
C58A G63U U69C,< 1e-05 s⁻¹,–,–,–,–
U56G A64G,0.000369 ± 6.8e-05 s⁻¹,0.00313 ± 0.00055 s⁻¹,–,0.000896 ± 0.00017 s⁻¹,–
U56C G59U,< 1e-05 s⁻¹,–,–,< 1e-05 s⁻¹,–
C50U C61U,< 1e-05 s⁻¹,< 1e-05 s⁻¹,< 1e-05 s⁻¹,–,< 1e-05 s⁻¹
C10G G41U G59A,–,< 1e-05 s⁻¹,< 1e-05 s⁻¹,< 1e-05 s⁻¹,–
C61U G63U,< 1e-05 s⁻¹,< 1e-05 s⁻¹,–,< 1e-05 s⁻¹,–
C8G U46C,–,< 1e-05 s⁻¹,< 1e-05 s⁻¹,< 1e-05 s⁻¹,–
G9C A14G G38C G40U,–,< 1e-05 s⁻¹,–,< 1e-05 s⁻¹,–
C8G U47C A48U G62C,–,< 1e-05 s⁻¹,–,–,–
A48C G59A G62U,< 1e-05 s⁻¹,–,< 1e-05 s⁻¹,< 1e-05 s⁻¹,< 1e-05 s⁻¹
C10A A39G G51U,–,< 1e-05 s⁻¹,< 1e-05 s⁻¹,–,–
G7A U31G G41U C68U,–,< 1e-05 s⁻¹,–,–,–
G7A G13A C34U G41C C58A G66U,–,< 1e-05 s⁻¹,–,–,–
G51A A53C A64U,< 1e-05 s⁻¹,< 1e-05 s⁻¹,–,–,–
A6C G41C U46C,–,< 1e-05 s⁻¹,–,–,–
C10U C11U A12G A33C G40U G59U G66A,–,< 1e-05 s⁻¹,–,–,–
C50U U57C,< 1e-05 s⁻¹,–,–,< 1e-05 s⁻¹,–
A6G G9U A12U A15C G35C G38C G63A,–,< 1e-05 s⁻¹,< 1e-05 s⁻¹,–,–
C58A U65A,< 1e-05 s⁻¹,–,–,–,–
C10G G44U C50U C61U,–,< 1e-05 s⁻¹,–,< 1e-05 s⁻¹,–
C8G G41U G60U U65G,–,< 1e-05 s⁻¹,< 1e-05 s⁻¹,< 1e-05 s⁻¹,–
